# Some of the results follow.
# B1: AFCNVH (Aspergillus fumigatus) (protein)
# chain: MSLRGFHTTCDTIVLKDKHILSSRCKRPDGTYSFSEIDLNDCLGNNNGKFVWGGESFVDSASQVNLALEGGEGRPMLHAQLNDWHGSVQSASVNLGECIQNEAGGLEYMHC
# Assays:
# Assay in all cases: glycan array binding signal (z-score within array); higher = stronger binding
# Settings in all cases: glycan notation: IUPAC condensed, linker removed
# [1] = target: Fuc(a1-2)Gal6S(b1-3)GlcNAc
# Summary of the method: (§1)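 Glycan array data came from 3228 arrays in the Consortium for Functional Glycomics database, and only arrays with an available protein sequence were kept. Glycan names were put into IUPAC-condensed notation, and columns mapping to the same glycan were averaged. The binding signal is a within-array Z-score, averaged across arrays of one protein sequence run at different concentrations or buffers and across linkers. A negative Z-score can be read as non-binding.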
# [2] = target: Fuc(a1-2)Gal6S(b1-3)GlcNAc6S
# Summary of the method: as §1
# Fuc(a1-2)Gal6S(b1-4)Glc = target: Fuc(a1-2)Gal6S(b1-4)Glc
# Summary of the method: as §1
# [3] = target: Fuc(a1-2)Gal6S(b1-4)Glc6S
# Summary of the method: as §1
# Fuc(a1-2)[Gal(a1-3)]Gal = target: Fuc(a1-2)[Gal(a1-3)]Gal
# Summary of the method: as §1
# [4] = target: Fuc(a1-2)[Gal(a1-3)]Gal(b1-3)GalNAc
# Summary of the method: as §1
# [5] = target: Fuc(a1-2)[Gal(a1-3)]Gal(b1-3)GalNAc(b1-3)Gal(a1-4)Gal(b1-4)Glc
# Summary of the method: as §1
# [6] = target: Fuc(a1-2)[Gal(a1-3)]Gal(b1-3)GlcNAc
# Summary of the method: as §1
# [7] = target: Fuc(a1-2)[Gal(a1-3)]Gal(b1-3)GlcNAc(b1-2)Man(a1-3)[Fuc(a1-2)[Gal(a1-3)]Gal(b1-3)GlcNAc(b1-2)Man(a1-6)]Man(b1-4)GlcNAc(b1-4)GlcNAc
# Summary of the method: as §1
# [8] = target: Fuc(a1-2)[Gal(a1-3)]Gal(b1-3)GlcNAc(b1-2)Man(a1-3)[Fuc(a1-2)[Gal(a1-3)]Gal(b1-3)GlcNAc(b1-2)Man(a1-6)]Man(b1-4)GlcNAc(b1-4)[Fuc(a1-6)]GlcNAc
# Summary of the method: as §1
# [9] = target: Fuc(a1-2)[Gal(a1-3)]Gal(b1-3)GlcNAc(b1-3)GalNAc
# Summary of the method: as §1
# [10] = target: Fuc(a1-2)[Gal(a1-3)]Gal(b1-3)GlcNAc(b1-6)GalNAc
# Summary of the method: as §1
# [11] = target: Fuc(a1-2)[Gal(a1-3)]Gal(b1-4)Glc
# Summary of the method: as §1
# [12] = target: Fuc(a1-2)[Gal(a1-3)]Gal(b1-4)GlcNAc
# Summary of the method: as §1
# [13] = target: Fuc(a1-2)[Gal(a1-3)]Gal(b1-4)GlcNAc(b1-2)Man
# Summary of the method: as §1
# [14] = target: Fuc(a1-2)[Gal(a1-3)]Gal(b1-4)GlcNAc(b1-2)Man(a1-3)[Fuc(a1-2)[Gal(a1-3)]Gal(b1-4)GlcNAc(b1-2)Man(a1-6)]Man(b1-4)GlcNAc(b1-4)GlcNAc
# Summary of the method: as §1
# [15] = target: Fuc(a1-2)[Gal(a1-3)]Gal(b1-4)GlcNAc(b1-2)Man(a1-3)[Fuc(a1-2)[Gal(a1-3)]Gal(b1-4)GlcNAc(b1-2)Man(a1-6)]Man(b1-4)GlcNAc(b1-4)[Fuc(a1-6)]GlcNAc
# Summary of the method: as §1
# [16] = target: Fuc(a1-2)[Gal(a1-3)]Gal(b1-4)GlcNAc(b1-3)GalNAc
# Summary of the method: as §1
# [17] = target: Fuc(a1-2)[Gal(a1-3)]Gal(b1-4)GlcNAc(b1-3)[Fuc(a1-2)[Gal(a1-3)]Gal(b1-4)GlcNAc(b1-6)]GalNAc
# Summary of the method: as §1
# [18] = target: Fuc(a1-2)[Gal(a1-3)]Gal(b1-4)GlcNAc(b1-6)GalNAc
# Summary of the method: as §1
# [19] = target: Fuc(a1-2)[Gal(a1-3)]Gal(b1-4)[Fuc(a1-3)]Glc
# Summary of the method: as §1
# [20] = target: Fuc(a1-2)[Gal(a1-3)]Gal(b1-4)[Fuc(a1-3)]GlcNAc
# Summary of the method: as §1
binder,measurement,setting,value
B1,glycan array binding signal (z-score),[1],-0.293
same,glycan array binding signal (z-score),[2],-0.146
same,glycan array binding signal (z-score),Fuc(a1-2)Gal6S(b1-4)Glc,-0.313
same,glycan array binding signal (z-score),[3],-0.428
same,glycan array binding signal (z-score),Fuc(a1-2)[Gal(a1-3)]Gal,-0.411
same,glycan array binding signal (z-score),[4],-0.401
same,glycan array binding signal (z-score),[5],-0.167
same,glycan array binding signal (z-score),[6],-0.443
same,glycan array binding signal (z-score),[7],-0.504
same,glycan array binding signal (z-score),[8],-0.326
same,glycan array binding signal (z-score),[9],-0.292
same,glycan array binding signal (z-score),[10],-0.361
same,glycan array binding signal (z-score),[11],-0.345
same,glycan array binding signal (z-score),[12],0.329
same,glycan array binding signal (z-score),[13],-0.444
same,glycan array binding signal (z-score),[14],-0.442
same,glycan array binding signal (z-score),[15],-0.237
same,glycan array binding signal (z-score),[16],-0.33
same,glycan array binding signal (z-score),[17],-0.536
same,glycan array binding signal (z-score),[18],-0.48
same,glycan array binding signal (z-score),[19],-0.455
same,glycan array binding signal (z-score),[20],-0.196

# From the supplement of paper PMC8728848
